Legend:
[1] = ref Ammosova et al., 2018; cited from earlier work
[2] = Experimental: 1E7-07 or 1E7-03 (10 μM) stability at various pH was tested at 37°C in sodium acetate-acetic acid buffer (pH = 4), NaH2PO4/Na2HPO4 buffer (pH = 7) and NaHCO3/NaOH buffer (pH = 10). Samples (100 μl) were collected at different time points up to 48 h, and evaporated to dryness using a SpeedVac concentrator immediately. The pellets were resolved in 100 μl of acetonitrile, vortexed for 2 min, then centrifuged at 13,000 × g for 5 min. The supernatant was transferred to a clean tube for LC-MS analysis.
We next compared stability of 1E7-07 to 1E7-03 in human and mouse serum at 37°C during 24 h incubation. Compounds (10 μM) were added to serum and aliquots were collected at different time points. Compounds were extracted from serum after total protein was precipitated with acetone, and quantified using LC/FT-MS ([Lin et al., 2017]). We identified 1E7-07 degradation products that were observed during incubation in mouse serum and in buffers with pH 4, pH 7, and pH 10 for 48 h at 37°C (Figure 2A). […] 1E7-03 was degraded by 90% in less than 30 min and by 100% in 6 h. […]
FIGURE 2 Cytotoxicity and stability of 1E7-07. […] Samples were collected at different time points, and compounds were extracted and quantified by LC/FT-MS analysis. […] Samples were processed and analyzed by LC/FT-MS. […] Remaining compounds were extracted and quantified by LC/FT-MS analysis.

Structure (SMILES)	toxicity [1]	stability at different pH [2]
CCNC(=O)NC(=O)C(C)OC(=O)c1c2c(nc3ccccc13)/C(=C\c1cccc([N+](=O)[O-])c1)CCC2 (centres unmarked) [1E7]	toxic	–
COc1ccc(C=C2CCc3c2nc2ccccc2c3C(=O)OC(C)C(=O)NC2CC2)cc1OC (centres unmarked) [1E7-07]	–	overall better stability

Source: PMC6753193 (Frontiers in Microbiology, 2019)
